Over roughly 33,000 sequences, “E-score (-0.5 to 0.5)” has its median near -0.021; the highest 2% begin near 0.32. The list shows a part of the results.
Each sequence was assayed against T1, Zap1 (UniProt P47043) (assay: PBM E-score (8-mer binding enrichment) (E-score (-0.5 to 0.5)); higher = stronger / more preferred TF binding; most listed sequences are background and not binding sites). Conditions: protein concentration: 200 nM; construct: GST-full length.
T1 sequence: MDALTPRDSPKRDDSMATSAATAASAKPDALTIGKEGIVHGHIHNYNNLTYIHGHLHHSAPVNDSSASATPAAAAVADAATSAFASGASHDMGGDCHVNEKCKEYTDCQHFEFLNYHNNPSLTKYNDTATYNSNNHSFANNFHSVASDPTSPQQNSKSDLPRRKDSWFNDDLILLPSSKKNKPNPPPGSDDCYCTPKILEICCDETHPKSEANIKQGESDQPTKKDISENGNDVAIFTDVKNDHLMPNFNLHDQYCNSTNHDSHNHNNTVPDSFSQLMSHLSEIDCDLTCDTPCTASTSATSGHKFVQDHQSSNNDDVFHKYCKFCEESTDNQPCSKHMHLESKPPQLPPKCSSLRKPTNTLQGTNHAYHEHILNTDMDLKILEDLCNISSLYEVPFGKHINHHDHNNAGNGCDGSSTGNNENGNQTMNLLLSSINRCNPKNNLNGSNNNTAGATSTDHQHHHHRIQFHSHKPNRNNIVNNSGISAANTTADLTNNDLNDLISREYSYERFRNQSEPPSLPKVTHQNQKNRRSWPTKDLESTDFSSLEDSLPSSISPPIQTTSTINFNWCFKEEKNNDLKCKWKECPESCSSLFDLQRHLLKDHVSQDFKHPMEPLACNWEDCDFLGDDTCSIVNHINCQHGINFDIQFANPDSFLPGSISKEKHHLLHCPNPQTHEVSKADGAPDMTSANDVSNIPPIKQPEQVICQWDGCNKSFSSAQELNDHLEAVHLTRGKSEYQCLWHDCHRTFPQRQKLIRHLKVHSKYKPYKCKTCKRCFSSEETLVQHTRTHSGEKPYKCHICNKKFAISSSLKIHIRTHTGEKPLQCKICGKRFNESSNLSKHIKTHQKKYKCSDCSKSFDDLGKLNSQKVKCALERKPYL
Procedure, shortened: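 Yeast transcription factors, full-length or as DNA-binding domains, were expressed with a GST tag using PURExpress in vitro transcription/translation. At about 100-200 nM they were applied to universal all-10-mer Agilent arrays, double-stranded by primer extension on fresh or once-stripped slides. Fluorescent anti-GST detected bound protein, and masliner normalised the scans. E-scores for ungapped eight-base words, pooled with reverse complements, came from the Universal PBM Analysis Suite.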

Sequence	PBM E-score
AACTCCCC	-0.143
CCGTAATC	-0.0258
CACTTGGC	-0.00224
CCGTCGTA	-0.0502
CCTTAGAG	0.0407
AGGCGATG	-0.179
CGAACTCG	0.0289
CCTCAGCA	-0.192
GAGAGGAC	-0.135
GAACTGTC	-0.169
TTATAAAA	0.13
ACTCGCAG	-0.0636
CTTTAGAC	0.0999
GTCTATTA	-0.035
CGTGGTTC	0.185
CACCCGTG	0.0546
AATTCCCC	-0.0785
TCCTGTCA	-0.0378
CTAGGAAG	-0.0365
ACTGCCCC	-0.255
AAGTTCGC	-0.0808
TCAGTAGA	-0.0962

Sequence	PBM E-score
AAGTACAT	0.0711
GGAATGAA	0.116
CAGAATAA	0.133
AACCCTAT	0.441
AGTTCAAA	-0.0313
AGGCCTAG	-0.1
GCATTATA	-0.0175
CTGCAGAC	-0.0745
ATAAATAG	0.0999
CCAGATAC	-0.0905
GCTCAATA	-0.122
CAATCTAC	-0.177
GGTGCGAC	-0.0899
GCTCGGCA	-0.17
CTGAGTAC	-0.149
CCGGCATA	-0.254
CGTCTAAA	0.182
AAGAGTTC	-0.0846
GAAGATTC	-0.188
GATCGAAA	0.111
GAAAGTTC	-0.0509
ATAAGGTA	0.231

Sequence	PBM E-score
TCCTTCGA	0.0347
GTACTCTA	-0.0135
CCGCCTAA	-0.0281
GCTGCCGA	-0.0487
AGTAGGTA	-0.0118
ACAACGCT	-0.162
CTTTCGCC	-0.179
GAACACTC	-0.0378
AATTGCGA	-0.0863
AACGTCCT	-0.0921
CGGTAGAC	0.174
AGACAAGA	-0.0243
TAACACAA	0.175
ACAGGTCC	0.00876
AGCTTGGA	-0.0874
AATATCAA	0.078
ATCCGGAC	-0.259
AGATCTTC	-0.00348
ATTGCTGA	-0.1
GATAGAAC	0.0235
CCCGGGGA	-0.0723
CTGTAATA	0.0621

Sequence	PBM E-score
ATAAAAAT	0.129
ATTGGTTG	0.186
CTCGAGCC	-0.0275
AAGAACGC	-0.0711
GAATGTAC	-0.138
CCCCATTA	-0.0568
ATTTACAC	-0.122
CCGGCCAG	-0.148
ATACTAGC	-0.108
GATGACTA	-0.145
GGATCAAC	0.0198
CAATGTAC	0.0929
CGGCTAAC	-0.0659
GATTTCCC	0.00718
AGCGGACT	-0.197
ATTAGGAA	0.0387
AACGTTAA	0.116
AGGCCTAA	0.206
ACACCTTG	0.149
AACTCCCA	-0.0305
